{"source": "PubChem BioAssay AID1347041", "about": "(National Center for Advancing Translational Sciences (NCATS), 2019)", "note": "In all, about 480,000 compounds went through this assay and about 740 (0.15%) were called active. Inconclusive results, whose numbers are uncertain, are shown with a selection of clear calls. No stated cut-off is given here; in the data, active means activity change below about -30%; inconclusive means mostly about -25% to -30%; inactive means weaker than that.", "data": [{"molecular_target": "L-lactate dehydrogenase A chain (Homo sapiens) (UniProt P00338)", "experiment": "qHTS assay for inhibitors of human lactate dehydrogenase;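 further: values are at about 110 or 230 µM; plate controls were DMSO wells for no effect and wells without enzyme for full effect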", "details": "purified LDHA, NADH/diaphorase-resazurin fluorescence; stronger effect = lower value", "summary_of_the_method": "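LDH5 2 nM; NADH 0.06 mM, pyruvate 0.2 mM; 200 mM Tris pH 7.4, EDTA, Tween-20; 5 min RT. Detection: diaphorase 0.133 mg/mL + resazurin 37 µM, fluorescence ex540/em590 at 0 and 20 min; normalized to enzyme-free and DMSO wells.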", "values": [{"smiles": "COc1ccc(/C=C/c2ccc3cc(C)ccc3n2)cc1O", "activity change": "inactive: 3.54%"}, {"smiles": "CC(C)(C)c1ccc(C(CNC(=O)c2cc(-c3cccs3)on2)N2CCOCC2)cc1", "note": "(centres undefined)", "activity change": "inconclusive: -26.6%"}, {"smiles": "Cc1ccc(C)c(Cn2c(-n3nc(C)cc3C)nc3c2c(=O)[nH]c(=O)n3C)c1", "activity change": "inactive: -6.21%"}, {"smiles": "CC(C)C#Cc1ccc2c(c1)O[C@@H](CN(C)S(=O)(=O)c1cn(C)cn1)[C@@H](C)CN([C@H](C)CO)S2(=O)=O", "activity change": "inconclusive: -29.5%"}, {"smiles": "N#Cc1ccc(N2CCC(C(=O)NC(c3ccc(F)cc3)C3CCCC3)CC2)nc1", "note": "(centres undefined)", "activity change": "inconclusive: -29.5%"}, {"smiles": "C/C(Cn1nnc([N+](=O)[O-])n1)=N\\NC(=O)c1ccncc1", "activity change": "inactive: 29%"}, {"smiles": "C[n+]1cn(CC(O)COCc2ccccc2)c2ccccc21", "note": "(centres undefined)", "activity change": "inconclusive: -33.4%"}, {"smiles": "CCOCCCNC(=O)CSCc1nc(-c2ccc(C)cc2)oc1C", "activity change": "active: -34.2%"}, {"smiles": "O=C1CC(c2ccccc2O)Cc2nc(N3CCN(c4ccccc4)CC3)ncc21", "note": "(centres undefined)", "activity change": "inconclusive: -26.2%"}, {"smiles": "CCCCCC(=O)N1C[C@@H](n2cc(-c3ccc(F)cc3)nn2)[C@H](O)C[C@@H]1c1ccc(C)cc1", "activity change": "active: -34.1%"}, {"smiles": "CCCCCC/C(=N/O)c1ccccn1", "activity change": "inactive: 1.77%"}, {"smiles": "Cn1c(SCCN2CCCCC2)nnc1-c1ccccc1Br", "activity change": "inconclusive: -26.1%"}, {"smiles": "Cc1c([N+](=O)[O-])c([N+](=O)[O-])nn1CC(=O)N1CCOCC1", "activity change": "inconclusive: -27.2%"}, {"smiles": "Cc1cc(OCCN2CCCC2)ccc1C(C)C", "activity change": "inconclusive: -25.4%"}, {"smiles": "Cc1cc(C(=O)NC2CCCCC2)c2ccccc2n1", "activity change": "inconclusive: -26.5%"}, {"smiles": "O=S(=O)(NCCNCC=Cc1ccc(Br)cc1)c1cccc2cnccc12", "activity change": "inconclusive: -25.7%"}, {"smiles": "Cn1c(=O)c2c(ncn2CC(=O)N(C2CCCCC2)C2CCS(=O)(=O)C2)n(C)c1=O", "note": "(centres undefined)", "activity change": "inconclusive: -25.9%"}, {"smiles": "CCOc1ccc(NC(=O)c2ccc(NC(=O)CCS(=O)(=O)c3cccs3)cc2)cc1", "activity change": "inconclusive: -26.7%"}, {"smiles": "CCOc1cccc(OCCCCN2CCCCC2)c1", "activity change": "inconclusive: -25.7%"}, {"smiles": "CN(Cc1ccc2c(c1)OCO2)C(=O)c1nn(-c2ccccc2)c(=O)c2ccccc12", "activity change": "active: -34.7%"}, {"smiles": "CN(C)S(=O)(=O)c1cc(C(=O)NCc2coc(-c3cccs3)n2)ccc1Cl", "activity change": "inactive: -0.973%"}, {"smiles": "Fc1ccccc1N1CCN(c2cnc3ccccc3n2)CC1", "activity change": "inactive: 5.01%"}, {"smiles": "CCc1ccc(CNC(=O)c2ccc3c(c2)c(C)c(C)n3Cc2ccccc2)cc1", "activity change": "inactive: -5.6%"}, {"smiles": "COc1cc(OC)cc(C(=O)NCCCN2CCOCC2)c1", "activity change": "inactive: -7.41%"}]}]}
